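96-well plates; 48 h exposure; 5 concentrations. Endpoints by linear interpolation between flanking doses. Not reached: highest tested concentration assigned. At the GI50, growth is halved. The concentration for full growth arrest is given as TGI.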

This experiment has as its system NCI-H322M lung. As to the kind of experiment: inhibition of tumour cell growth, NCI panel, 48 h.
Consider `COc1ccc(/C=C/c2n(Cc3ccc4ccccc4c3)c3ccccc3[n+]2Cc2ccc3ccccc3c2)cc1`, for which the GI50 was 1.35 µM and the TGI came to 2.64 µM.
The matching figures for `Nc1cc(-c2c[nH]c3ccc(Br)cc23)nc2cc(-c3c[nH]c4ccccc34)nn12`: 3.63 µM and 15.3 µM.
For `CN1C(=O)/C(=C/c2ccc3ncsc3c2)NC1=NC12CC3CC(CC(O)(C3)C1)C2`, the GI50 was 2.68 µM and the TGI was over 100 µM.
For the molecule `COc1ccccc1-n1cc(C#N)c(N)c1C(=O)c1ccc(Cl)cc1Cl`, the GI50 is 7.65 µM and the TGI was over 100 µM.
Take `C#C[C@]1(O)CC[C@H]2[C@@H]3CC=C4c5sc(Nc6cc(C)cc(C)n6)nc5CC[C@]4(C)[C@H]3CC[C@@]21C`: the GI50 is over 100 µM and the TGI was over 100 µM.
As to `Cc1ccc(Cl)cc1NC(=O)Nc1nc2ccc([N+](=O)[O-])cc2s1`, the GI50 was 3.07 µM and the TGI amounted to 11.1 µM.

The record behind these values is PubChem BioAssay (NCI).
